# Laboratory results as given in paper PMC7615710, “ASPP2 binds to hepatitis C virus NS5A protein via an SH3 domain/PxxP motif-mediated interaction and potentiates infection” (The Journal of general virology, 2023).
# Target: T1, HCV [1a.1] NS5A PRR peptide (Hepatitis C virus genotype 1a (strain 1))
# T1 construct: source: synthetic peptide, custom made (TUCF)
# Test: ITC; 450 or 300 uM NS5A PRR peptide (syringe) titrated to 30 uM ASPP CTD or SH3 domain (cell), 12 °C, 25 mM HEPES pH 7.5, 150 mM NaCl, 500 uM TCEP; 25 steps of 10 ul; AB hetero association model (SEDPHAT)
# Settings: both partners purified
binder,measurement,value
Abl1 SH3 domain ([…]) (domain or fragment) not shown,Kd,49.9 µM
